{"source": "PubChem BioAssay AID2546", "about": "(National Center for Advancing Translational Sciences (NCATS), 2010)", "note": "Out of some 310,000 compounds screened, about 11,000 (3.5%) were called active. The shares of active, inactive and inconclusive entries below differ from those in the screen. Calls come from the whole dose curve; as a rule, active = well fitted inhibition curve with a large enough effect; inconclusive = small, poorly fitted or top-dose-only effect, or effect the other way; inactive = flat fitted curve, though single readings scatter. Potencies of inconclusive entries are left out as doubtful fits. % is set by controls: 0 for no effect and ±100 for the full control effect; potency is the fitted concentration of half-maximal effect; tags give direction and shape of the fitted curve.", "data": [{"experiment": "VP16 counterscreen qHTS for inhibitors of ROR gamma transcriptional activity;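 note: Gal4-VP16 expression switched on by copper sulfate through the metallothionein promoter; nearly all actives have a fitted effect of over 50% in size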", "settings": "Drosophila S2 Gal4-VP16 UAS-luciferase, luminescence, 20 h; activity, negative = inhibition: at 53.6 µM (top of the series)", "values": [{"smiles": "C=CCOc1ccccc1CNc1ccc2c(c1)OCCO2", "Potency": "inconclusive [inhibitor, single point]"}, {"smiles": "CC(=O)N1CCC(=NNc2nc3ccccc3s2)CC1", "Potency": "inconclusive [activator, single point]"}, {"smiles": "FC(F)(F)c1cccc(-c2cc3ccccc3nc2N2CCCC2)c1", "Potency": "inconclusive [inhibitor, single point]"}, {"smiles": "COc1ccc(N2CCN(S(=O)(=O)c3ccc(-c4cc(C)no4)s3)CC2)cc1", "activity, negative = inhibition": "inactive: -1.4%"}, {"smiles": "Cc1c(-c2ccccc2)[nH]n2c(=O)c3c(nc12)CCCC3", "Potency": "inconclusive [activator, single point]"}, {"smiles": "COc1ccccc1NC(=S)NNC(=O)c1nn(C)cc1Cl", "Potency": "inconclusive [inhibitor, single point]"}, {"smiles": "COc1ccc(C(Nc2ccccn2)c2c(NC(=O)c3ccco3)sc(C)c2C)cc1OC", "note": "(configuration not stated)", "Potency": "inconclusive [activator, full curve, poor fit]"}, {"smiles": "Cc1cc(C)cc(NS(=O)(=O)c2ccc(NC(=S)NC(=O)c3ccc(Br)o3)cc2)c1", "Potency": "active: 7.94 µM"}, {"smiles": "COc1ccccc1OCC(=O)N(Cc1nc(-c2ccccc2)no1)C1CCCCC1", "activity, negative = inhibition": "inactive: 1.62%"}, {"smiles": "Cc1cc(-c2nnc(SCC(=O)Nc3nc(-c4ccc(Cl)cc4)cs3)o2)no1", "Potency": "inconclusive [inhibitor, single point]"}, {"smiles": "CC(c1ccccc1)N1CC(C(=O)Nc2nccs2)CC1=O", "note": "(configuration not stated)", "activity, negative = inhibition": "inactive: 3.95%"}, {"smiles": "CC(C)CC(=O)NC(=S)NNC(=O)c1ccc([N+](=O)[O-])cc1", "Potency": "active: 5.62 µM"}, {"smiles": "O=C(/C=C/c1cccs1)N1CCc2ccccc21", "Potency": "inconclusive [inhibitor, single point]"}, {"smiles": "CCC(CC)C(=O)N1CCN(c2cccc(C)c2C)CC1", "Potency": "inconclusive [inhibitor, single point]"}, {"smiles": "Cc1ccc(NC(=S)NCCc2c[nH]c3ccccc23)c(C)c1", "Potency": "active: 17.8 µM"}, {"smiles": "COc1ccc2cc(C3CC(c4ccco4)=NN3C(=O)CCC(=O)O)c(Cl)nc2c1", "note": "(configuration not stated)", "Potency": "inconclusive [activator, single point]"}, {"smiles": "COc1ccc(-c2csc(-n3ncc(C(=O)O)c3C(F)(F)F)n2)cc1", "Potency": "inconclusive [inhibitor, full curve]"}, {"smiles": "O=C(c1ccccc1)N1CCc2ccccc21", "Potency": "inconclusive [inhibitor, full curve]"}, {"smiles": "COCCNC(=O)/C(C#N)=C/c1cn(CC(=O)NCc2ccco2)c2ccccc12", "activity, negative = inhibition": "inactive: 5.19%"}, {"smiles": "CCCCOP(=O)(OCCCC)C(Nc1ccccc1)c1ccc2c(c1)OCO2", "note": "(configuration not stated)", "Potency": "inconclusive [inhibitor, single point]"}, {"smiles": "O=[N+]([O-])c1cccc(-c2csc(Nc3ccccc3)n2)c1", "Potency": "inconclusive [activator, single point]"}, {"smiles": "O=S(=O)(c1cccc(-c2nc3ccccc3s2)c1)N1CCOCC1", "Potency": "inconclusive [inhibitor, single point]"}, {"smiles": "Cc1cccc(C)c1NC(=O)COC(=O)c1cccc2c1C(=O)c1ccccc1C2=O", "activity, negative = inhibition": "inactive: -8.43%"}, {"smiles": "O=C(NN1C(=O)c2ccccc2C1=O)C1C2CCCCC21", "note": "(configuration not stated)", "Potency": "inconclusive [inhibitor, partial curve]"}, {"smiles": "CCn1c(C)nc2cc(C(=O)N/N=C/c3ccccc3)ccc21", "Potency": "inconclusive [inhibitor, single point]"}, {"smiles": "COc1ccc(C(CCN(Cc2ccc(OC)c(OC)c2)C(C)=O)c2ccccc2)cc1", "note": "(configuration not stated)", "Potency": "inconclusive [inhibitor, single point]"}, {"smiles": "O=C(Cc1ccc([N+](=O)[O-])cc1)N1CCN=C1SCc1ccccc1", "activity, negative = inhibition": "inactive: -5.13%"}, {"smiles": "O=C(NCCN1C(=O)S/C(=C\\c2ccc(F)cc2)C1=O)c1cccc(S(=O)(=O)N2CCOCC2)c1", "activity, negative = inhibition": "inactive: -5.97%"}, {"smiles": "Nc1nc(NCc2c(F)cccc2Cl)nn1-c1ccccc1", "Potency": "inconclusive [activator, single point]"}, {"smiles": "COc1ccccc1C(CCN(Cc1ccccc1)C(C)=O)c1ccco1", "note": "(configuration not stated)", "activity, negative = inhibition": "inactive: 0.439%"}, {"smiles": "O=C(COc1ccccc1Cl)NCc1ccco1", "Potency": "inconclusive [activator, partial curve, poor fit]"}, {"smiles": "c1coc(-c2nc3nc4ccccc4nc3n2CC2CCCO2)c1", "note": "(configuration not stated)", "Potency": "inconclusive [inhibitor, single point]"}, {"smiles": "COc1ccc(NC(=S)N2CCN(c3ccc([N+](=O)[O-])cc3)CC2)cc1OC", "Potency": "active: 7.08 µM"}, {"smiles": "Cc1cnc(NC(=O)c2cc3c(s2)CCCC3)s1", "Potency": "active: 7.08 µM"}, {"smiles": "N=C1C(c2nc(-c3ccc(F)cc3)cs2)=C(O)CN1Cc1ccc(Cl)cc1", "Potency": "inconclusive [inhibitor, partial curve]"}, {"smiles": "CC/C(=N\\Nc1nncc2ccccc12)c1ccc(F)cc1", "Potency": "inconclusive [inhibitor, full curve]"}, {"smiles": "Cn1c(CS(=O)Cc2c(Cl)cccc2Cl)nnc1SCc1ccc(Cl)cc1", "note": "(configuration not stated)", "Potency": "inconclusive [inhibitor, single point]"}, {"smiles": "COc1ccc(-n2nc(C(=O)NCC(=O)NCCN(C)C)c3ccccc3c2=O)cc1", "activity, negative = inhibition": "inactive: 3.04%"}, {"smiles": "C/C(=N\\NC(=O)Nc1ccccc1)c1ccc2ccccc2c1", "Potency": "inconclusive [inhibitor, single point]"}, {"smiles": "O=C1N/C(=C\\c2ccc(O)cc2)C(O)=C1C=NCc1ccccc1", "Potency": "inconclusive [inhibitor, partial curve]"}, {"smiles": "COc1ccc(-c2cn[nH]c2-c2ccc(OCc3ccccc3)cc2O)cc1", "Potency": "inconclusive [inhibitor, single point]"}, {"smiles": "CCCOc1ccc(/C(O)=C2/C(=O)C(=O)N(CCCOC)C2c2cccnc2)cc1", "note": "(configuration not stated)", "activity, negative = inhibition": "inactive: 18.2%"}, {"smiles": "Cc1[nH]n(-c2ccccc2)c(=O)c1C(c1ccccc1[N+](=O)[O-])C(C#N)C#N", "note": "(configuration not stated)", "activity, negative = inhibition": "inactive: 22%"}, {"smiles": "CC(C)(C)C1CCC(=NNc2ccc(S(N)(=O)=O)cc2[N+](=O)[O-])CC1", "note": "(configuration not stated)", "Potency": "inconclusive [inhibitor, single point]"}, {"smiles": "CCC(C)NC(=S)N1CCN(Cc2ccccc2)CC1", "note": "(configuration not stated)", "Potency": "inconclusive [activator, full curve, poor fit]"}, {"smiles": "O=[N+]([O-])c1nn(-c2ccc3c(c2)OCCO3)n(O)c1=NCCC1=CCCCC1", "Potency": "inconclusive [activator, full curve, poor fit]"}, {"smiles": "COc1ccc(/C=C/c2ccc3c(Br)ccc(O)c3n2)cc1", "Potency": "active: 3.55 µM"}, {"smiles": "CC1=C(C(=O)OCC2CCCO2)C(c2ccc(C)cc2)C2=C(CCCC2=O)N1", "note": "(configuration not stated)", "activity, negative = inhibition": "inactive: 4.77%"}, {"smiles": "N#C/C(=C/c1ccc(OCc2ccccc2)cc1)C(=O)NC1CCCCC1", "activity, negative = inhibition": "inactive: -1.45%"}, {"smiles": "O=C(/C=C/c1ccc(NC(=O)c2ccccc2-c2ccccc2C(=O)O)cc1)c1ccccc1", "Potency": "inconclusive [inhibitor, single point]"}, {"smiles": "CN1C=CC2=C(C#N)C(N)C(C#N)(C#N)C(c3ccccc3)C2C1", "note": "(configuration not stated)", "activity, negative = inhibition": "inactive: -15.2%"}, {"smiles": "C/C(=N\\NC(=O)c1nc2ccccn2c1C)c1cc2ccccc2o1", "Potency": "inconclusive [inhibitor, partial curve]"}, {"smiles": "CCc1cc(-c2n[nH]c(C)c2-c2ccc3c(c2)OCCO3)c(O)cc1O", "Potency": "inconclusive [inhibitor, single point]"}, {"smiles": "COc1ccc(OCc2cc(C(=O)NC3Cc4ccccc4C3)no2)c(Cl)c1", "activity, negative = inhibition": "inactive: -13.9%"}, {"smiles": "CC(Cc1cccs1)NC(=S)Nc1ccc(Cl)c(Cl)c1", "note": "(configuration not stated)", "Potency": "inconclusive [inhibitor, single point]"}, {"smiles": "CC1C(c2ccccc2)N(C)C(c2ccccc2)C(C)C1(O)C#Cc1ccccc1", "note": "(configuration not stated)", "Potency": "inconclusive [inhibitor, single point]"}, {"smiles": "Cc1nc(-c2ccccc2)sc1C(=O)/C=C/N(C)C", "Potency": "inconclusive [inhibitor, single point]"}, {"smiles": "CCc1c(C)[nH]c(=S)c(C#N)c1C", "Potency": "inconclusive [inhibitor, single point]"}, {"smiles": "CCOC(=O)N1CCC(Nc2c(NCCCN3CCN(C4CCCCC4)CC3)c(=O)c2=O)CC1", "activity, negative = inhibition": "inactive: -7.47%"}, {"smiles": "CCCCc1nc2cc(C(=O)NCc3cn(C)nc3C)ccc2o1", "Potency": "active: 0.0631 µM"}, {"smiles": "CCn1c(CSc2nc3ccccc3s2)n[nH]c1=S", "Potency": "active: 10 µM"}, {"smiles": "COCCNC(=S)N(CCc1c(C)[nH]c2ccc(F)cc12)Cc1cccs1", "Potency": "inconclusive [inhibitor, single point]"}, {"smiles": "O=C(CSc1ncccn1)NCc1ccccc1Cl", "Potency": "inconclusive [inhibitor, single point]"}, {"smiles": "COCCCNc1ccnc2c(Cl)cccc12", "activity, negative = inhibition": "inactive: -17.6%"}, {"smiles": "O=C1c2ccccc2C(=O)C1c1ccnc2ccccc12", "Potency": "inconclusive [inhibitor, full curve]"}, {"smiles": "CC1(C)CCC(=O)N2CC[C@H]3C[C@H](OC(=O)Nc4ccc5c(c4)OCO5)C[C@@H]1[C@H]32", "Potency": "inconclusive [inhibitor, single point]"}, {"smiles": "N/C(Cc1ccc([N+](=O)[O-])cc1)=N\\OC(=O)C(c1ccccc1)c1ccccc1", "Potency": "active: 10 µM"}, {"smiles": "COc1ccc(CCNc2ncnc3nc[nH]c23)cc1OC", "Potency": "inconclusive [inhibitor, single point]"}, {"smiles": "CC1(C)CC(=O)C(C=NCCN2CCN(C(=O)NC34CC5CC(CC(C5)C3)C4)CC2)=C(O)C1", "activity, negative = inhibition": "inactive: 3.8%"}, {"smiles": "COC(=O)c1ccc(COc2cccc3c2CCN(Cc2cccc(C)c2)C3=O)o1", "Potency": "inconclusive [inhibitor, single point]"}, {"smiles": "CCOC(=O)[C@@H]1[C@H]2COc3ccccc3[C@@H]2N2C(=O)N(c3ccc(OC)cc3)C(=O)[C@@]12C", "activity, negative = inhibition": "inactive: 7.36%"}, {"smiles": "CCN(CC(=O)NCc1ccc(F)cc1)C(=O)CN1CCN(c2cc(Cl)ccc2C)CC1", "activity, negative = inhibition": "inactive: 7.89%"}]}]}
